B1: PhoQ; a variant is named by its letters at X, in order, P23837 (parent)
chain: MKKLLRLFFPLSLRVRFLLATAAVVLVLSLAYGMVALIGYSVSFDKTTFRLLRGESNLFYTLAKWENNKLHVELPENIDKQSPTMTLIYDENGQLLWAQRDVPWLMKMIQPDWLKSNGFHEIEADVNDTSLLLSGDHSIQQQLQEVREDDDDAEMTHSVAVNVYPATSRMPKLTIVVVDTIPVELKSSYMVWSWFIYVLSANLLLVIPLLWVAAWWSLRPIEALAKEVRELEEHNRELLNPATTRELTSLVRNLNRLLKSERERYDKYRTTLTDLTHSLKTPLXXLQXXLRSLRSEKMSVSDAEPVMLEQISRISQQIGYYLHRASMRGGTLLSRELHPVAPLLDNLTSALNKVYQRKGVNISLDISPEISFVGEQNDFVEVMGNVLDNACKYCLEFVEISARQTDEHLYIVVEDDGPGIPLSKREVIFDRGQRVDTLRPGQGVGLAVAREITEQYEGKIVAGESMLGGARMEVIFGRQHSAPKDE

Some of the results follow.

The variants in this assay derive from B1. Kind of assay: enrichment ratio after two sorts for PhoP signalling (ratio (wild type AVST 3.29)); higher = more functional. The conditions noted are these: with PhoP (E. coli).
For QQTI, the enrichment ratio is at most 0.25.

Turning to CVIT, the enrichment ratio is at most 0.25.

On to REAP, for which the enrichment ratio is at most 0.25.

Take ELWI: the enrichment ratio is at most 0.25.

SWAM: the enrichment ratio was at most 0.25.

As to RLTK, the enrichment ratio is at most 0.25.

Take RMDC: the enrichment ratio is at most 0.25.

Consider AKWW, for which the enrichment ratio was at most 0.25.

Take MGLD: the enrichment ratio was at most 0.25.

Consider LMKN, for which the enrichment ratio was at most 0.25.

On to HPYQ, for which the enrichment ratio was at most 0.25.

Regarding STVC, the enrichment ratio was determined as 1.73.

As for SWMR, the enrichment ratio was at most 0.25.

As to AYVF, the enrichment ratio was at most 0.25.

Regarding AKLQ, the enrichment ratio was found to be 41.4.

With FGWF, the enrichment ratio was determined as 0.428.

Turning to HRIA, the enrichment ratio was at most 0.25.

Regarding WISC, the enrichment ratio was at most 0.25.

As for EGTF, the enrichment ratio was at most 0.25.

As for GISD, the enrichment ratio was at most 0.25.

For NMFL, the enrichment ratio was at most 0.25.

Consider PISN, for which the enrichment ratio was at most 0.25.

As for LPKT, the enrichment ratio was at most 0.25.

For the variant EFYI, the enrichment ratio is at most 0.25.

As for LTPR, the enrichment ratio is at most 0.25.

AYLV: the enrichment ratio was 3.08.

TYNT: the enrichment ratio is at most 0.25.

On to GIQV, for which the enrichment ratio was at most 0.25.

WPDF: the enrichment ratio is at most 0.25.

As to SYNY, the enrichment ratio is at most 0.25.

Take YEVL: the enrichment ratio was at most 0.25.

Consider GEPT, for which the enrichment ratio was at most 0.25.

As for IVVC, the enrichment ratio is at most 0.25.

Turning to NAMG, the enrichment ratio was at most 0.25.

As for WPQC, the enrichment ratio is at most 0.25.

On to RDYE, for which the enrichment ratio is at most 0.25.

For the variant QRNG, the enrichment ratio is at most 0.25.

FARM: the enrichment ratio is at most 0.25.

On to YHFG, for which the enrichment ratio is at most 0.25.

As to HINW, the enrichment ratio is at most 0.25.

On to TPSP, for which the enrichment ratio is at most 0.25.

Take IYNN: the enrichment ratio is at most 0.25.

SIQW: the enrichment ratio was at most 0.25.

THFA: the enrichment ratio is at most 0.25.

For MEST, the enrichment ratio is 5.63.

Consider SSTC, for which the enrichment ratio worked out at 10.3.

Take KLHL: the enrichment ratio was at most 0.25.

Turning to EYVA, the enrichment ratio is at most 0.25.

Consider HDVE, for which the enrichment ratio was at most 0.25.

With VCTE, the enrichment ratio is at most 0.25.

For SYTL, the enrichment ratio was at most 0.25.

Regarding MKGI, the enrichment ratio is at most 0.25.

In the case of REWW, the enrichment ratio is at most 0.25.

In the case of LGHI, the enrichment ratio stood at 4.08.

TLRT: the enrichment ratio is at most 0.25.

For the variant TAFV, the enrichment ratio was at most 0.25.

For the variant NYMM, the enrichment ratio is at most 0.25.

Turning to DFPP, the enrichment ratio is at most 0.25.

Regarding LQNT, the enrichment ratio is at most 0.25.

Regarding WNGR, the enrichment ratio is at most 0.25.

With FNHV, the enrichment ratio was at most 0.25.

Consider WTRP, for which the enrichment ratio was at most 0.25.

Regarding DNRR, the enrichment ratio was at most 0.25.

For the variant AQDP, the enrichment ratio is at most 0.25.

Regarding ISKA, the enrichment ratio is at most 0.25.

On to TDVL, for which the enrichment ratio stood at 2.12.

For the variant PGIY, the enrichment ratio is at most 0.25.

Regarding ARWP, the enrichment ratio is at most 0.25.

As to RAIP, the enrichment ratio is at most 0.25.

Consider SPTM, for which the enrichment ratio is at most 0.25.

Consider WYMQ, for which the enrichment ratio was at most 0.25.

For GINK, the enrichment ratio was at most 0.25.

On to MMMY, for which the enrichment ratio was at most 0.25.

Turning to KCCS, the enrichment ratio is at most 0.25.

As for VMLE, the enrichment ratio was at most 0.25.

For the variant SSQR, the enrichment ratio is at most 0.25.

GSDE: the enrichment ratio was at most 0.25.

Take GITG: the enrichment ratio is 2.48.

Take PENW: the enrichment ratio was at most 0.25.

On to WNFE, for which the enrichment ratio is at most 0.25.

As for DWHD, the enrichment ratio was at most 0.25.

In the case of KAKA, the enrichment ratio was at most 0.25.

HFST: the enrichment ratio was at most 0.25.

For the variant GMNW, the enrichment ratio is at most 0.25.

For the variant LKDH, the enrichment ratio is at most 0.25.

For the variant DFYS, the enrichment ratio is at most 0.25.

As for HILT, the enrichment ratio was at most 0.25.

Consider HHMW, for which the enrichment ratio is at most 0.25.

For WRHN, the enrichment ratio is at most 0.25.

For the variant NTMG, the enrichment ratio was at most 0.25.

On to PWLM, for which the enrichment ratio is at most 0.25.

Regarding VTYA, the enrichment ratio was at most 0.25.

Take IERV: the enrichment ratio was at most 0.25.

FLNV: the enrichment ratio was at most 0.25.

As for QVLV, the enrichment ratio was at most 0.25.

With ASTA, the enrichment ratio amounted to 9.73.

In the case of NETQ, the enrichment ratio is at most 0.25.

With DIWP, the enrichment ratio was at most 0.25.

Turning to ITAP, the enrichment ratio is at most 0.25.

For LNAM, the enrichment ratio is at most 0.25.

For QLIY, the enrichment ratio is at most 0.25.

As to PKAP, the enrichment ratio is at most 0.25.

In the case of GDQI, the enrichment ratio was at most 0.25.

Take NFIT: the enrichment ratio was at most 0.25.

Consider IETN, for which the enrichment ratio was at most 0.25.

With SFWH, the enrichment ratio is at most 0.25.

For the variant TWYS, the enrichment ratio is at most 0.25.

As for TRPE, the enrichment ratio is at most 0.25.

For GMMK, the enrichment ratio was at most 0.25.

With LWCN, the enrichment ratio was at most 0.25.

FTAL: the enrichment ratio was found to be 0.293.

On to NMPG, for which the enrichment ratio is at most 0.25.

Regarding RDEL, the enrichment ratio was at most 0.25.

RTTC: the enrichment ratio is at most 0.25.

Regarding YIGF, the enrichment ratio was determined as 0.333.

KGRM: the enrichment ratio was at most 0.25.

With WRYS, the enrichment ratio is at most 0.25.

Regarding LPTW, the enrichment ratio is at most 0.25.

Turning to MKHG, the enrichment ratio was at most 0.25.

On to GILQ, for which the enrichment ratio was 17.5.

On to VWHL, for which the enrichment ratio was at most 0.25.

As to TWGP, the enrichment ratio is at most 0.25.

Turning to WQEW, the enrichment ratio was at most 0.25.

Turning to YRDF, the enrichment ratio is at most 0.25.

On to YMVT, for which the enrichment ratio was at most 0.25.

With EEQY, the enrichment ratio is at most 0.25.

For the variant SIAM, the enrichment ratio is 20.8.

As for DMSW, the enrichment ratio is at most 0.25.

With YRAY, the enrichment ratio is at most 0.25.

On to DVRV, for which the enrichment ratio was at most 0.25.

For the variant PARD, the enrichment ratio is at most 0.25.

Regarding DGCI, the enrichment ratio was at most 0.25.

Turning to NHYM, the enrichment ratio is at most 0.25.

Regarding AYWF, the enrichment ratio is at most 0.25.

As to RPID, the enrichment ratio was at most 0.25.

YKDK: the enrichment ratio is at most 0.25.

For KYEV, the enrichment ratio is at most 0.25.

In the case of KCVD, the enrichment ratio was at most 0.25.

For YVKR, the enrichment ratio is at most 0.25.

As for GVQP, the enrichment ratio is at most 0.25.

As to LILQ, the enrichment ratio was at most 0.25.

For YNSA, the enrichment ratio was at most 0.25.

Regarding LWAY, the enrichment ratio was determined as 0.574.

For the variant HPIM, the enrichment ratio was at most 0.25.

As for LLCI, the enrichment ratio was at most 0.25.

On to NISQ, for which the enrichment ratio is at most 0.25.

On to RPFA, for which the enrichment ratio is at most 0.25.

Take NAHS: the enrichment ratio is at most 0.25.

As to YSIF, the enrichment ratio is at most 0.25.

For MCIW, the enrichment ratio was at most 0.25.

In the case of GFRF, the enrichment ratio is at most 0.25.

For the variant PDNF, the enrichment ratio was at most 0.25.

With RIVI, the enrichment ratio is at most 0.25.

Source of the values: a collection of fitness landscapes (doi:10.1126/science.1257360).
